According to PubChem BioAssay AID1240 (Sanford-Burnham Center for Chemical Genomics, 2008):
Among all 50,000 compounds or so, about 800 (1.6%) showed an effect of 50% or more. The list shows a part of the results.

Each compound was assayed against Bcl-2-like protein 10 (Homo sapiens) (UniProt Q9HD36) (assay: Phenotype converters, Bcl-B/TR3 peptide binding displacement, primary biochemical FP (AID 1240;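 also: 0% = Bcl-B with tracer peptide and DMSO and 100% = tracer peptide lacking Bcl-B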)). Conditions: GST-Bcl-B / FITC-TR3 peptide fluorescence polarization; stronger effect = higher value; compound at 3.75 mg/L.
Chain of UniProt Q9HD36 (Q9HD36 whole entry, looked up): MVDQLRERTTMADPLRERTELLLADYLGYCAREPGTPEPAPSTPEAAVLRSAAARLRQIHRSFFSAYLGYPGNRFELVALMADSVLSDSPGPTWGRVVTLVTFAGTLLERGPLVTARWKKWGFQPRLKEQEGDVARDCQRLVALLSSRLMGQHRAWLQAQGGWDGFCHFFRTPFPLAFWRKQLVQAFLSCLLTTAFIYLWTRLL
In the case of COC(=O)c1ccc(C(=O)OC)c(NC(=O)c2cccc(OC)c2)c1, the displacement is reported as 15%. Work on Cc1cccc(N2C(=O)NC(=O)/C(=C\c3ccc(OCc4cccc(C(=O)O)c4)cc3)C2=O)c1 yielded a displacement of 3.3%. Work on N#Cc1cc(N=Cc2cccc(C=Nc3ccc(N)c(C#N)c3)c2)ccc1N yielded a displacement of 15.2%. For CC(NC(=O)CN1CCCCC1)C1CC2CCC1C2 (stereo not given), the displacement was -8.9%. COc1ccc(NC(=O)c2cccc(C(F)(F)F)c2)c2ccccc12 gave a displacement of 10.3%. O=C(CCN1C(=O)c2ccccc2C1=O)NCc1ccncc1 showed a displacement of -6.7%. For CCOC(=O)C(=O)Nc1nc(C23CC4CC(CC(C4)C2)C3)cs1, the displacement was 3.2%. For Cc1ccc([N+](=O)[O-])cc1Cc1cc(Cl)ccc1Cl, the displacement was 5.1%. CCCOc1cccc(NC(=O)c2c(-c3ccccc3)noc2C)c1 showed a displacement of -5.5%. With CCOc1ccc(NC(=O)C(=O)Nc2cccc(C(F)(F)F)c2)cc1 the displacement was 12.6%. Work on CCCn1c(SCC(=O)O)nc2ccccc21 yielded a displacement of 11.8%. For COC1(/C(N)=C/C(=O)c2ccccc2)CCCCC1, the displacement was 5.1%. In the case of O=C(CN1CCOCC1)NCC12CC3CC(CC(C3)C1)C2, the displacement is reported as 4.5%. CCOCc1cnc(C)nc1NC(C)=O showed a displacement of 3.9%. With O=C1CCCC2=C1C(c1ccc(O)c(O)c1)Nc1ccc3ncccc3c12 (stereo not given) the displacement was 33.3%. Compound CN1CCN(CCOCCOc2ccccc2)CC1 has a displacement of -7.9%. Work on CCC(=O)Nc1ccc(NC(=O)c2cc3ccccc3o2)cc1 yielded a displacement of 5.1%. In the case of CCOC(=O)c1sc(NC(=O)C2CC3CCC2C3)c(C(=O)OCC)c1C (stereo not given), the displacement is reported as -6.3%. For COc1ccc(/C=C/C(=O)Nc2ccc(NC(=O)c3cc4ccccc4o3)c(OC)c2)cc1, the displacement was 10%. With COc1ccccc1/C=N/n1c(C)nnc1C the displacement was 2.2%. Work on O=C(/C=C/c1ccccc1)N1CCC(CN2C(=O)c3cccc4cccc(c34)C2=O)CC1 yielded a displacement of 9.9%. C#Cc1cccc(N2C(=O)c3c(Br)c(Br)c(Br)c(Br)c3C2=O)c1 gave a displacement of 2.7%. Compound COc1ccc(C2CC(=O)C3=C(C2)Nc2ccccc2NC3c2ccc(F)cc2)cc1OC (stereo not given) has a displacement of 8.5%. Compound COc1ccc(OC)c(NC(=O)c2cc3cc(Br)ccc3oc2=O)c1 has a displacement of 0.5%. In the case of CCOC(=O)C1CCN(S(=O)(=O)c2cc(Cl)ccc2Cl)CC1, the displacement is reported as -3.5%. COc1ccc(-c2nnnn2C)cc1S(=O)(=O)Nc1ccc(I)cc1 showed a displacement of 11.3%. With O=C(Nc1cccnc1)c1cccc2c1C(=O)c1ccccc1-2 the displacement was -1.4%. Work on O=C(/C=C/c1ccccc1)NC(=S)Nc1ccc(NC(=O)c2ccco2)c(Cl)c1 yielded a displacement of 14.1%. Cc1ccc(NC(=O)CSCC(=O)Nc2ccccc2)c(C)c1 was tested, and the displacement was -2.1%. Cc1ccc(NC(=O)Nc2nccs2)cc1 was tested, and the displacement was -11.6%. S=C(Nc1cccc2ccccc12)N1CCN(C(c2ccccc2)c2ccccc2)CC1 was tested, and the displacement was 20.4%. For O=C(CSc1nc2ccccc2s1)c1cccs1, the displacement was -13%. With COc1ccc(-c2csc(-c3cc4cc(Cl)cc(Cl)c4oc3=O)n2)cc1 the displacement was 75%. O=C(/C=C/c1cccc([N+](=O)[O-])c1)Nc1ccc(-c2nc3ccccc3o2)c(O)c1 was tested, and the displacement was 2.3%. In the case of O=C(CC1S/C(=N\N=C2/CCCc3ccccc32)NC1=O)Nc1ccc(Cl)cc1Cl (stereo not given), the displacement is reported as 7.3%. CC(=O)NS(=O)(=O)c1ccc(NC(=O)c2cccc(C)c2)cc1 showed a displacement of 8.1%. For COc1cc(NC(=O)COc2ccccc2[N+](=O)[O-])ccc1NC(=O)c1ccco1, the displacement was -1.2%. In the case of CCOC(=O)c1c(-c2ccc(C)cc2)csc1NC(=O)c1cc2ccccc2oc1=O, the displacement is reported as 6.6%. Compound O=C1NC(=Nc2ccc(F)cc2)S/C1=C/C=C/c1ccccc1 has a displacement of 13.8%. For COc1ccc2oc(=O)c(C(=O)Nc3cccc([N+](=O)[O-])c3)cc2c1, the displacement was 10.3%. Compound NC(=O)CN(Cc1ccccc1)S(=O)(=O)c1ccccc1 has a displacement of 3.2%. COc1cc(C2Nc3ccccc3NC3=C2C(=O)CC(C)(C)C3)cc(OC)c1OC(C)=O (stereo not given) gave a displacement of -23.2%. COc1ccc(N=c2ssc3c2-c2ccc(OC)cc2NC3(C)C)cc1 showed a displacement of -8%. For Cc1cc(OCC(=O)Nc2ccc(N3CCOCC3)cc2)ccc1Br, the displacement was -9.7%. O=C(/C=C/c1ccc2c(c1)OCO2)n1cnc2ccccc21 was tested, and the displacement was 13.6%. For COc1cccc(/C=N/n2c(-c3ccccc3)n[nH]c2=S)c1, the displacement was -1.6%. In the case of COc1ccc(OC)c(C2NC(=S)NC(C)=C2C(=O)OCCc2ccccc2)c1 (stereo not given), the displacement is reported as 3.9%. With O=C(Nc1ccc2oc(-c3cccc4ccccc34)nc2c1)c1ccc([N+](=O)[O-])cc1 the displacement was 11.4%. COc1cc(C(=O)N2CCN(Cc3cccc4ccccc34)CC2)cc(OC)c1OC gave a displacement of 5.8%. Compound COc1ccc(C2Nc3ccccc3C(=O)N2Cc2ccccc2)cc1Cn1nnc2ccccc21 (stereo not given) has a displacement of -4.3%. CNC(=O)OCCc1ccc(-c2ccccc2)o1 gave a displacement of 10.5%. For O=C(O)c1cc(Cl)ccc1NC(=O)C(c1ccccc1)c1ccccc1, the displacement was 2.7%. For Cc1ccc(NC(=O)C2C3C=CC(C4CC34)C2C(=O)O)c(C)c1 (stereo not given), the displacement was 2.2%. COc1ccc(N(CC(=O)Nc2cc(C)ccc2C)S(C)(=O)=O)cc1 was tested, and the displacement was 6.4%. Compound N/C(=N\OC(=O)C(c1ccccc1)c1ccccc1)c1cccnc1 has a displacement of 10.3%. COC(=O)c1cc(C(=O)Nc2nccs2)cc([N+](=O)[O-])c1 was tested, and the displacement was -7.8%. Compound O=C1NN(c2ccc(Cl)cc2)C(=O)/C1=C\c1ccc(-c2cccc(C(=O)O)c2)o1 has a displacement of 5%. In the case of O=c1c2ccccc2n(Cc2cccc(C(F)(F)F)c2)c2ccccc12, the displacement is reported as -1.9%. For Cc1ccc(OCC(=O)Nc2ccc([N+](=O)[O-])cc2)c(C)c1, the displacement was 8.8%. For CC(C)c1ccc(N2C(=O)NC(=O)/C(=C/c3ccc(I)o3)C2=O)cc1, the displacement was -9.8%. With O=C(COc1ccc(Cl)cc1)Nc1nn[nH]n1 the displacement was 1.9%. For CCOC(=O)Cc1csc(NC(=O)COc2cc(C)ccc2C(C)C)n1, the displacement was -1.6%. Work on Cn1c(O)c(C(=NCc2ccccc2)c2ccccc2)c(=O)n(C)c1=O yielded a displacement of 6.7%. For CCOc1ccc(/C=C2/C(=O)NN(c3ccccc3)C2=O)cc1OC, the displacement was 9.6%. With O=C(NCCNc1ccc(Cl)cc1[N+](=O)[O-])c1cccc2ccccc12 the displacement was 14.2%. CSc1ccc(/C=C2\C(=O)NC(=O)N(c3cc(C)cc(C)c3)C2=O)cc1 was tested, and the displacement was -7.2%. Work on COc1ccc(C(=O)Nc2ccc(NC(C)=O)cc2)cc1[N+](=O)[O-] yielded a displacement of 2.7%. Work on Cc1ccc(NC(=O)CN(c2ccc(F)cc2)S(=O)(=O)c2ccccc2)cc1C yielded a displacement of 3.9%. For Cc1cc(Cl)ccc1OCC(O)CN1CCN(Cc2ccccc2)CC1 (stereo not given), the displacement was -0.3%. Compound Cc1ccc2nc(N3C(=O)c4cccc5cccc(c45)C3=O)sc2c1 has a displacement of -15.5%. In the case of O=C(Nc1cccc2ccccc12)c1ccc(S(=O)(=O)N2CCOCC2)cc1, the displacement is reported as 7.8%. O=C(NCCSCc1cccc(Cl)c1)c1c(Cl)cccc1Cl gave a displacement of 2.1%. O=C(COc1ccc(Br)cc1)N1CCN(c2ccccn2)CC1 was tested, and the displacement was -8.5%. Work on O=C1c2cccc3cccc(c23)C(=O)N1c1ccc2c(c1)oc1ccccc12 yielded a displacement of -6%. For COc1cc(/C=C2\C(=O)NC(=O)N(c3ccc(C)cc3)C2=O)ccc1OCc1ccc(C(=O)O)cc1, the displacement was -28.6%. In the case of CN(C)c1cccc(C(=O)Nc2ccncc2)c1, the displacement is reported as 10.5%. Compound CC(=O)Nc1ccccc1NC(=O)COc1ccc(C)cc1Br has a displacement of -9.6%. With CCCCCCCCC(=O)N/N=C(\C)c1ccco1 the displacement was 11.8%. CC1=C(C(=O)OCCc2ccccc2)C(c2ccc([N+](=O)[O-])s2)NC(=O)N1C (stereo not given) gave a displacement of 4.3%. In the case of COCCNC(=O)COc1ccc(C)cc1Br, the displacement is reported as -11.1%. O=C(Nc1ccccc1)Nc1cccc(Cl)c1Cl was tested, and the displacement was -8.5%. Compound Cc1cc(-c2ccc(Cl)cc2)nc2cc(C(=O)O)nn12 has a displacement of 15.3%. Work on Cc1ccc(NC(=O)c2ccc3nc4ccccc4nc3c2)cc1 yielded a displacement of -8.5%. OCc1ccc(-c2cc(C(F)(F)F)cc(C(F)(F)F)c2)o1 showed a displacement of 12.5%. COc1ccc(C=NN2CCN(c3ccccn3)CC2)cc1OCc1ccccc1 was tested, and the displacement was -1.3%. With COc1cccc(C2NC(=S)NC(C)=C2C(=O)Nc2ccc(Br)cc2)c1OC (stereo not given) the displacement was 11.9%. For CC1=C(C(=O)Nc2ccc(Cl)cc2)C(c2cccs2)NC(=O)N1 (stereo not given), the displacement was 1.4%. In the case of COc1ccc(N2C(=O)c3ccc(C(=O)Nc4ccc(NC(C)=O)cc4)cc3C2=O)cc1, the displacement is reported as 5.9%. With CNC(=O)CN(c1ccc(C)cc1)S(=O)(=O)c1ccc(SC)cc1 the displacement was 1.3%. With CC(=O)c1ccc(NC(=O)c2ccoc2C)cc1 the displacement was 94%. Compound NNc1nc(Nc2ccc(Br)cc2)nc(OC(C(F)(F)F)C(F)(F)F)n1 has a displacement of -19%. O=C(Nc1ccccc1C(=O)O)c1ccc(N2C(=O)C3C4C=CC(C4)C3C2=O)cc1 (stereo not given) was tested, and the displacement was -3.6%. In the case of COc1ccc(NC(=O)CN(c2c(C)n(C)n(-c3ccccc3)c2=O)S(=O)(=O)c2ccccc2)cc1, the displacement is reported as -0.6%. Compound CCOC(=O)c1ccc2nc(C)c(CCC(C)=O)c(Cl)c2c1 has a displacement of 0.7%. CCc1ccc(OCC(=O)Nc2ccc(O)c(-c3nc4ccccc4s3)c2)cc1 showed a displacement of 12.7%. O=C(NCCO)C1COc2ccccc2O1 (stereo not given) showed a displacement of 4%. O=c1c2c(nc3cc(-c4cccc(Cl)c4)[nH]n13)CCS2 showed a displacement of 34.8%. Work on Cc1ccc(-c2cc(C(F)(F)F)n3nc(C(=O)NCc4cccs4)cc3n2)cc1 yielded a displacement of 9.9%. For CCOC(=O)C1CCN(C(=O)Nc2ccc(Cl)cc2)CC1, the displacement was 13.2%. For COc1ccc(CC(=O)N2CC(C)CC(C)C2)cc1 (stereo not given), the displacement was 8.9%. In the case of Cc1ccc(NC(=S)NC(=O)c2ccccc2)cc1Br, the displacement is reported as 9%. In the case of CCCCOc1ccc(C(=S)N2CCOCC2)cc1, the displacement is reported as 11.2%. With COC(=O)CN(c1ccc(F)cc1)S(=O)(=O)c1ccccc1 the displacement was 12.2%. Cc1ccccc1OCC(=O)NCc1ccccn1 showed a displacement of -8%. O=C(c1cccc(Cl)c1)N1CCN(C2CCN(Cc3ccccc3)CC2)CC1 was tested, and the displacement was -10.8%. Cc1nnc(C)n1/N=C/c1ccccc1Cl gave a displacement of -2.9%. O=C(COc1ccc2ccc(=O)oc2c1)c1ccc(-c2ccccc2)cc1 gave a displacement of 13.1%. With O=C(CSc1nnc(Cc2ccccc2)o1)c1ccc(Cl)cc1 the displacement was 13.1%. CCN(CC)CC(C(=O)N(CC)CC)P(=O)(c1ccccc1)c1ccccc1 (stereo not given) gave a displacement of 0.4%. Work on O=C(Cn1cc(/C=C2\NC(=O)NC2=O)c2ccccc21)Nc1ccccc1 yielded a displacement of 7.5%.
